Laboratory results taken from patent publication US20220073637A1 (CITY OF HOPE, published 2022).

Experiments:
[1] = target: T1, human CD6 (human, UniProt P30203 18-402, limits assumed); test: ELISA on human CD6; enzymatic site non-cleaved
T1 sequence (looked up): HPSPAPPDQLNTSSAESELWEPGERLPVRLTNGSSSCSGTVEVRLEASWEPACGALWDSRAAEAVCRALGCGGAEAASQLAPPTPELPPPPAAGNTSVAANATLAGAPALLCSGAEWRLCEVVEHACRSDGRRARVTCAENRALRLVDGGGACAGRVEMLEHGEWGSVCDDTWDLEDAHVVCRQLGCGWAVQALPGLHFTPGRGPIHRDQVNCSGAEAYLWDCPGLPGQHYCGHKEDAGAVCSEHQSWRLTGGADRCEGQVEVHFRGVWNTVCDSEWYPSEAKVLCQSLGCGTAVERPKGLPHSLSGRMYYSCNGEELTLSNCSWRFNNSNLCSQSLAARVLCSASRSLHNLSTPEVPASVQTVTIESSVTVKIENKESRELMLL
Method: FIG. 35. Human CD6 binding of exemplary anti-CD6/EGF antibody-growth factor complexes provided herein. ELISA of bionic anti-CD6/EGF antibody conjugate of SEQ ID NO:38 and D104N mutant bionic anti-CD6/EGF antibody conjugate binding to CD6 is shown. The dilution of the antibodies was carried out with respect to the concentration obtained by OD₂₈₀. The enzymatic site is non-cleaved for both mAbs.

[2] = target: T2, EGFR (UniProt P00533 in part, limits assumed); test: SPR (Biacore), EGFR immobilized on CM5 chip by NHS chemistry, conjugate 0.0625-2 µM, 25 °C
T2 construct: also called epidermal growth factor receptor
Method: FIG. 26. Dissociation constant (KD) of an exemplary anti-CD6 antibody-growth factor complex provided herein. Bionic anti-CD6/EGF antibody conjugate of SEQ ID NO:32 binding to EGFR is shown. EGFR was immobilized to a Biacore CM5 chip using NHS chemistry. Concentrations of previously cleaved and purified bionic anti-CD6/EGF antibody conjugate ranging from 0.0625 μM to 2 μM were flown over the chip at 25° C.

[3] = target: T3, CD6 Ecto (ectodomain) (UniProt P30203 18-402); test: SPR (Biacore), CD6 Ecto immobilized on CM5 chip, conjugate 50-0.39 nM, 25 °C
T3 construct: extracellular domain; also called ecto CD6 domain; CD6 ecto domain
T3 sequence (looked up): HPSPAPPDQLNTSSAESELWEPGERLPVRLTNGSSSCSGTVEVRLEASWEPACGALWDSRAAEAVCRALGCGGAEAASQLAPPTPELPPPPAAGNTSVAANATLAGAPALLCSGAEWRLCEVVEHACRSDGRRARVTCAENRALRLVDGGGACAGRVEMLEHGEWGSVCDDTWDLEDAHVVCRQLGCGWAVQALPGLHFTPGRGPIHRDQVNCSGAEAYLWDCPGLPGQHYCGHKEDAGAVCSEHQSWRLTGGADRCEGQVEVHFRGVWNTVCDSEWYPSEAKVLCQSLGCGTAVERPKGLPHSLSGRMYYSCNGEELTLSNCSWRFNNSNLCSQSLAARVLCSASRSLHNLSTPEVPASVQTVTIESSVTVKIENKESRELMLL
Method: FIG. 33. SPR of an exemplary anti-CD6 antibody-growth factor complex provided herein. SPR with MMP2 cleaved bionic anti-CD6/EGF antibody conjugate with CD6 Ecto is shown. CD6 Ecto was immobilized to a Biacore CM5 chip using NHS chemistry. Concentrations of purified cleaved bionic anti-CD6/EGF antibody conjugate ranging from 50 nM to 0.39 nM were flown over the chip at 25° C.

B1: bionic anti-CD6/EGF antibody conjugate of SEQ ID NO:38 (Fc fusion)
chain: DIQMTQSPILLSASVGDRVTITCKASRDIRSYLTWYQQRTNGSPRTLIYYATSLADGVPSRFSGSGSGQDYSLTISSLESDDIADYYCLQHGESPFTFGSGTKLEIKRTVAAPSVFIFPPSDEQLKSGTASVVCLLNNFYPREAKVQWKVDNALQSGNSQESVTEQDSKDSTYSLSSTLTLSKADYEKHKVYACEVTHQGLSSPVTKSFNRGECASASAAASSASSAASSNSDSECPLSHDGYCLHDGVCMYIEALDKYACNCVVGYIGERCQYRDLKWWELRGSGSGIEPDSGGSEVQLVESGGGLVKPGGSLKLSCAASGFKFSRYAMSWVRQAPGKRLEWVATISSGGSYIYYPDSVKGRFTISRDNVKNTLYLQMSSLRSEDTAIYYCARRDYDLDYFDSWGQGTLVTVSS[human IgG1 constant region not listed]
notes: also called anti-CD6^EGF[GZMB]; Base bionic CD6-EGF antibody conjugate with granzyme cleavage site
**Q.** B1 was tested. Which “EC50 (read off the curve)” value [1] did it give?
**A.** ~0.09 µg/mL

B2: Bionic anti-CD6/EGF antibody conjugate of SEQ ID NO:32, previously cleaved and purified (Fc fusion)
chain: DIQMTQSPILLSASVGDRVTITCKASRDIRSYLTWYQQRTNGSPRTLIYYATSLADGVPSRFSGSGSGQDYSLTISSLESDDIADYYCLQHGESPFTFGSGTKLEIKRTVAAPSVFIFPPSDEQLKSGTASVVCLLNNFYPREAKVQWKVDNALQSGNSQESVTEQDSKDSTYSLSSTLTLSKADYEKHKVYACEVTHQGLSSPVTKSFNRGECASASAAASSASSAASSNSDSECPLSHDGYCLHDGVCMYIEALDKYACNCVVGYIGERCQYRDLKWWELRGSGVLPASLYSGSEVQLVESGGGLVKPGGSLKLSCAASGFKFSRYAMSWVRQAPGKRLEWVATISSGGSYIYYPDSVKGRFTISRDNVKNTLYLQMSSLRSEDTAIYYCARRDYDLDYFDSWGQGTLVTVSS[human IgG1 constant region not listed]
modifications: backbone cleaved by protease (MMP9 per FIG. 25) within the MMP2/9 site (SEQ ID NO:66) of the second linker; the bond that is cut is not stated
notes: After cleavage the molecule consists of LC-linker-EGF-(linker remnant) and (linker remnant)-HC-Fc; also called cleaved bionic anti-CD6/EGF antibody conjugate; Bionic Cleaved
**Q.** B2 was tested. Which Kd [2] did it give?
**A.** 230 nM

B3: MMP2 cleaved bionic anti-CD6/EGF antibody conjugate (wild type) (Fc fusion)
chain: DIQMTQSPILLSASVGDRVTITCKASRDIRSYLTWYQQRTNGSPRTLIYYATSLADGVPSRFSGSGSGQDYSLTISSLESDDIADYYCLQHGESPFTFGSGTKLEIKRTVAAPSVFIFPPSDEQLKSGTASVVCLLNNFYPREAKVQWKVDNALQSGNSQESVTEQDSKDSTYSLSSTLTLSKADYEKHKVYACEVTHQGLSSPVTKSFNRGECASASAAASSASSAASSNSDSECPLSHDGYCLHDGVCMYIEALDKYACNCVVGYIGERCQYRDLKWWELRGSGVLPASLYSGSEVQLVESGGGLVKPGGSLKLSCAASGFKFSRYAMSWVRQAPGKRLEWVATISSGGSYIYYPDSVKGRFTISRDNVKNTLYLQMSSLRSEDTAIYYCARRDYDLDYFDSWGQGTLVTVSS[human IgG1 constant region not listed]
modifications: backbone cleaved by MMP2 within the MMP2/9 site (SEQ ID NO:66) of the second linker; the bond that is cut is not stated
notes: also called wild type cleaved bionic anti-CD6/EGF antibody conjugate
**Q.** Which results are given for B3?
**A.** Kd [3]: 0.762 nM; koff [3]: 0.0017 s⁻¹; kon [3]: 2.3e+06 M⁻¹ s⁻¹
